According to PubChem BioAssay AID1963870 (Molecular Pharmacology Branch, DTP, NCI, 2024):
A number of entries come with more than one value. The other results are left out here. The source may hold further records. Values given together repeat one measurement in other runs, samples, wells, individuals or studies. Marks such as [2022-09] give the month of the run. Marks such as (2×) give the number of equal values in this list.

Test system: 292921-168-R-J2-PDC KRAS tumor spheroid viability
Experiment: Anticancer human tumor 292921-168-R-J2-PDC patient-derived pancreatic carcinoma cell line growth inhibition [KRAS2]
Conditions: for viability, T/C: stronger effect = lower value; for IC50: compound alone
From the text: Multicellular complex tumor spheroid response to RAS pathway inhibitors in combination with a targeted agents in patient-derived cell lines with oncogenic KRAS variants from multiple cancer types
A high-throughput screen of multi-cell type tumor spheroids was designed to identify active combinations of targeted small molecules and KRAS pathway inhibitors. Complex spheroids include a stromal component modeled by human endothelial cells (HUVEC) and fibroblasts modeled by human mesenchymal stem cells (MSCs). The concentration ranges selected for each drug and investigational agent were based upon clinically achievable concentrations if the clinical Cmax of the agent was known.
Compounds. The drugs and investigational agents: BI-3406 (NSC825286), BAY-293 (NSC824723), batoprotafib (TNO155; NSC825523), sotorasib (AMG 510; NSC818433), MRTX1257 (NSC819558), elimusertib (BAY 1895344; NSC800525), molibresib (GSK525762; NSC774829), temuterkib (LY3214996; NSC803410), venetoclax (NSC766270), alisertib (NSC759677), olaparib (NSC753686), talazoparib (NSC767125), erdafitinib (NSC781556), ipatasertib (NSC767898), cabozantinib (NSC761068), nintedanib (NSC756659), abemaciclib (NSC768073), docetaxel (NSC628503), trametinib (NSC758246), and sapanisertib (NSC764658) were obtained from the National Cancer Institute (NCI) Developmental Therapeutics Program Chemical Repository. The FDA-approved anticancer drug set is available from the Developmental Therapeutics Program. […] The stock solutions were prepared in dimethyl sulfoxide (DMSO, Sigma-Aldrich, St. Louis, MO, cat. D2650) at 800-fold the tested concentration and stored at -70 degrees C prior to their use. All drugs and investigational agents were tested over a range starting from a high concentration at or near the clinical Cmax and decreasing in half-log increments. If the clinical Cmax for an agent had not been determined, the highest concentration tested was 10 microM.
Cell Culture. All cells were maintained in an incubator at 37 degrees C and 5% CO2 with 95% humidity. The PDC lines were cultured according to standard operating procedures established by the NCI PDMR (https://pdmr.cancer.gov/sops/default.htm). Briefly, all PDCs were thawed and cultured in Matrigel-coated flasks prepared with a working solution of 1X Ham's F-12 nutrient mix, without supplementation (Invitrogen, Waltham, MA, cat. 11765054), 100 U/mL penicillin-streptomycin (Invitrogen, cat. 15140122), and 2.5% Matrigel (Corning Inc., Corning, NY, cat. 354248) for the first three passages. All PDCs were cultured in complete DMEM/F-12 media containing advanced DMEM/F-12 (Invitrogen, cat. 12634028), 4.9% defined fetal bovine serum, heat inactivated (HyClone Laboratories Inc., Logan, UT, cat. SH30070.03HI), 389 ng/mL hydrocortisone (Sigma-Aldrich, cat. H4001), 9.7 ng/mL human EGF recombinant protein (Invitrogen, cat. PHG0313), 23.4 microg/mL adenine (Sigma-Aldrich, cat. A2786), 97.3 U/mL penicillin-streptomycin (Invitrogen, cat. 15140122), 1.9 mM L-glutamine (Invitrogen, cat. 25030081), and 9.7 microM Y-27632 dihydrochloride (Tocris Bioscience, Bristol, United Kingdom, cat. 1254). The PDCs were cultured in complete DMEM/F12 media without 9.7 microM Y-27632 dihydrochloride for at least two passages prior to the screen. The established cell line HOP-62 was cultured in RPMI 1640 medium, HEPES (Invitrogen, cat. 22400105) with 10% defined fetal bovine serum (HyClone Laboratories Inc., cat. SH30070.03) and 2 mM L-glutamine (Invitrogen, cat. 25030081). The pooled donor HUVEC were cultured in endothelial cell growth medium 2 (PromoCell, Heidelberg, Germany, cat. C-22011) and the hMSC were cultured in mesenchymal stem cell growth medium 2 (PromoCell, cat. C-28009). For all experiments, HUVEC and hMSC were used at passages </=5, while the malignant cell lines were used at passages </=15. […]

[1] = compound alone 0.1 µM, spheroids with HUVEC and MSC
[2] = compound alone 0.316 µM, spheroids with HUVEC and MSC
[3] = compound alone 1 µM, spheroids with HUVEC and MSC
[4] = compound alone 3.16 µM, spheroids with HUVEC and MSC
[5] = compound alone 10 µM, spheroids with HUVEC and MSC
[6] = compound alone 0.0316 µM, spheroids with HUVEC and MSC
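Also: drug exposure lasted seven days after spheroids formed for three days.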
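For viability, T/C in this document: percent of DMSO vehicle control viability which is 100%.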

IC50 (spheroids with HUVEC and MSC) | SMILES | viability, T/C (compound alone 0.000316 µM, spheroids with HUVEC and MSC) | IC50 (combination, run of 08/19/2021) | viability, T/C [1] | viability, T/C [2] | viability, T/C [3] | viability, T/C [4] | viability, T/C [5] | IC50 (run of 08/26/2021, spheroids with HUVEC and MSC) | viability, T/C [6]
 | CC(C)n1nc(-c2ccc3oc(N)nc3c2)c2c(N)ncnc21 | 105, 75.7, 83.5, 82.9, 82.2% |  |  |  |  |  |  |  | 
 | COc1cc2nc(C)nc(NC(C)c3cc(N)cc(C(F)(F)F)c3)c2cc1OC1CCOC1 (stereo not given) |  | > 10 µM, 8.72 µM, 5.04 µM, 3.86 µM | 105, 109, 119, 132, 101 (3×), 94.6, 92.3, 98.9, 96.3% [2021-08] and 91.3, 87.5, 83, 88.2, 93.8% [2021-09] | 72, 90.7, 112 (2×), 98.8, 91.5, 93.4, 93.7, 95.9, 83.1, 95.4% [2021-08] and 79, 85.5, 80.8, 78.3, 90.3% [2021-09] | 71.1, 65.8, 126, 81.7, 82.3, 72.8, 93, 93.4, 82.8, 77, 91.8% [2021-08] and 78.5, 68.1, 71.2, 73, 79.3% [2021-09] | 76.5, 62.1, 86.7, 79.7, 69, 59.3, 72, 79.5, 76.1, 64.4, 66.2% [2021-08] and 62, 64.4, 58.4, 61.6, 55.4% [2021-09] | 61.3, 62.7, 75, 43.4, 25.2, 18.5, 55.6, 37.8, 36.6, 34.8, 22.4% [2021-08] and 24.4, 24.2, 26.3, 27.5, 27.2% [2021-09] | > 10 µM, 7.14 µM, 6.64 µM, 5.23 µM, 4.84 µM | 
 | C=CC(=O)N1CCN(c2nc(=O)n(-c3c(C)ccnc3C(C)C)c3nc(-c4c(O)cccc4F)c(F)cc23)C(C)C1 (stereo not given) |  | 7.2 µM, 5.55 µM, 3.5 µM, < 100 nM, 5.29 µM, 8.35 µM | 120, 108, 96.9, 49.9, 101, 119, 107, 116, 104 (2×), 110% [2021-08] and 108, 109 (2×), 104, 106, 110% [2021-09] | 120 (2×), 89.4, 45.5, 95, 134, 111, 121, 115, 103, 112% [2021-08] and 105, 112, 84.3, 103, 115, 119% [2021-09] | 98.5, 112, 80.3, 42.7, 92.4, 140, 109, 115, 108 (2×), 103% [2021-08] and 109, 110, 98.3, 97.4, 111, 122% [2021-09] | 72.7, 74.5, 51.6, 51.3, 69.2, 94.5, 70.9, 64.5, 85, 77.5, 65.6% [2021-08] and 70, 76, 71.6, 73.4, 76.1, 72.7% [2021-09] | 41.1, 24.3 (2×), 28.2, 47.2, 26.1, 41.7, 28.9, 27.2, 21.3, 18.1% [2021-08] and 25, 26.4, 22.1, 24.1, 25.9, 24.5% [2021-09] |  | 
 | CC1OCC2(CCN(c3cnc(Sc4ccnc(N)c4Cl)c(N)n3)CC2)C1N (stereo not given) |  | < 100 nM, 5.4 µM, 10 µM, > 10 µM, 714 nM, 1.25 µM | 19.3, 81.4, 90.6, 76.4, 76.8, 73.7, 82.7, 80.8, 79.7, 82.5, 83.2% [2021-08] and 69.5, 71.4, 71.7, 72.9, 69.8, 76.3, 74.9, 72.3% [2021-09] | 23.4, 58.1, 80.8, 66.8, 62.6, 67.2, 55.8, 59.6, 59.7, 63.7, 65.6% [2021-08] and 52.5, 59, 62.1, 52.3, 47.7, 60.4, 52.9, 55.4% [2021-09] | 25.4, 78.5, 137, 75.9, 45.7, 52.6, 44, 45.9, 43.6, 49, 50.9% [2021-08] and 45.3, 48.2, 45.7, 46.4, 44.9, 44.2, 42.6, 44.6% [2021-09] | 19.4, 29.7, 49.2, 70, 34.5, 39.6, 33.4, 37, 36, 41.6, 41% [2021-08] and 35.4, 35.9, 36.1, 36.2, 31.5, 34.6, 33.4, 35% [2021-09] | 21.7, 56.9, 55.5, 62, 36.5, 35.4, 31, 33.5, 28.1, 31.4, 33.3% [2021-08] and 27.9, 28.3, 30.6, 31.8, 29.1, 33.3, 30.8, 31.4, 32.4% [2021-09] |  | 
 | C=CC(=O)N1CCN(c2nc(OCC3CCCN3C)nc3c2CCN(c2cccc4cccc(C)c24)C3)CC1CC#N (stereo not given) |  | > 3.16 µM, 1.33 µM, 500 nM, < 31.6 nM, 794 nM, 728 nM | 97.8, 92.4, 88.8, 23.5, 99.4, 98.2, 97.7, 98.9, 99.8, 90.5, 111% [2021-08] and 94.4, 82.4, 80.7, 93.2, 91.6% [2021-09] | 58.8, 82.3, 54.2, 22.8, 83, 80.5, 86.2, 81.4, 87.4, 89.2, 97.2% [2021-08] and 105, 76.3, 78, 79.5, 74.2% [2021-09] | 66.4, 70.2, 46.7, 18.5, 41.8, 38.4, 41.2, 38.6, 62.9, 50.2, 40.2% [2021-08] and 45.3, 38.1, 30.1, 32.6, 28.9% [2021-09] | 117, 0.33, 0.46, 0.14, 0.13, 0.1, 0.38, 0.48, 0.98, 0.45, 1.2% [2021-08] and 0.19, 0.14, 0.11, 0.2% [2021-09] |  |  | 57.3, 104, 113, 27.5, 101 (3×), 107 (2×), 102, 98.3% [2021-08] and 101, 97.5, 93.2, 110, 96.4% [2021-09]
106, 46.6, 645, 575, 622 nM | COC(=O)c1ccc2c(C(=Nc3ccc(N(C)C(=O)CN4CCN(C)CC4)cc3)c3ccccc3)c(O)[nH]c2c1 |  |  | 57.8, 38, 74.9, 82.6, 88.7% | 22.3, 17.2, 67, 60.1, 68.3% | 21.1, 13.9, 37.5, 45.9, 39.9% |  |  |  | 62.7, 57.1, 95, 96.4, 97.6%
 | O=C(c1cc(Cc2n[nH]c(=O)c3ccccc23)ccc1F)N1CCN(C(=O)C2CC2)CC1 |  |  | 74.3, 86.5, 94.3, 102, 94.5% | 83.6, 81.4, 102, 107, 110% | 85.9, 90.2, 108, 113, 102% | 65.1, 74.4, 75, 104, 94.2% |  |  | 
 | CNCc1ccccc1-c1csc(C(C)Nc2nc(C)nc3cc(OC)c(OC)cc23)c1 (stereo not given) |  | 5.75, 1.7, 1.49, 1.45, 1.36, 1.28 µM | 67.6, 96.3, 104, 110, 99.6 (2×), 97.7, 101, 92.6, 93.2, 92.3% [2021-08] and 85.8, 91, 87.4, 88.3, 83.8% [2021-09] |  | 118, 92.5, 76, 73.5, 68.1, 63.7, 63.4, 74.4, 63.2, 61.2, 78% [2021-08] and 67.3, 68.8, 69.8, 57.5, 61.5% [2021-09] | 132, 0.2, 0.1, 0.21, 0.12 (2×), 0.08 (2×), 0.14, 0.44% [2021-08] and 0.14, 0.12, 0.07, 0.1% [2021-09] |  |  | 
 | COc1cc2nccc(Oc3ccc(NC(=O)C4(C(=O)Nc5ccc(F)cc5)CC4)cc3)c2cc1OC |  |  |  |  | 77.7, 79.1, 69.2, 99.2, 83.5% |  |  |  | 
